B1: LINE1-mini (parent)
chain: GGCAGAGCUCAACACAGCGUGGCAAAGUGGCUGUGGCUAGACUGCC

The source gives no read counts; variants with many changes may rest on few reads.

Variants of B1 are the subject of the data set. The experiment in a line: self-cleavage, relative activity (ratio to wild type); higher = more cleavage; in vitro, sequencing; the parent is a self-cleaving ribozyme.
As to GGCAGAGCUCAACACAGCGUGGCAAAGUGGCGGUGGCACGACUGCU, the self-cleavage turned out to be 0.06.

For GGCAGAGCUCAACACAGCGUGGCAAAGUGGCUGAGGCUAGUGUGCC, the self-cleavage amounted to 0.1.

For the variant GGCAGAGCUCAACACAGCGUGGCAAAGUGGCUGCGGCUCGACUGAC, the self-cleavage came out at 0.02.

Regarding GGCAGAGCUCAACACAGCGUGGCAAAGUGGCUGAAGCUAGACUACC, the self-cleavage is 0.01.

As for GGCAGAGCUCAACACAGCGUGGCAAAGUGGCUAUAGCUAGAACGCC, the self-cleavage came to 0.01.

On to GGCAGAGCUCAACACAGCGUGGCAAAGUGGCUAUGGUUAUACUGCC, for which the self-cleavage was found to be 0.1.

Consider GGCAGAGCUCAACACAGCGUGGCAAAGUGGCUUUGGCUGGACUGAC, for which the self-cleavage worked out at 0.04.

For GGCAGAGCUCAACACAGCGUGGCAAAGUGGCUAUUGCUAGACUACC, the self-cleavage was found to be 0.01.

In the case of GGCAGAGCUCAACACAGCGUGGCAAAGUGGCUUUGGCUAGGCGGCC, the self-cleavage is 0.02.

For GGCAGAGCUCAACACAGCGUGGCAAAGUGGCUUUGGCUAGGCAGCC, the self-cleavage came out at 0.04.

As for GGCAGAGCUCAACACAGCGUGGCAAAGUGGCUCUGCCUAUACUGCC, the self-cleavage was 0.03.

As to GGCAGAGCUCAACACAGCGUGGCAAAGUGGCUUUGUCUAGACCGUC, the self-cleavage was determined as 0.05.

As to GGCAGAGCUCAACACAGCGUGGCAAAGUGGCUGGGAAUCGACUGCC, the self-cleavage is 0.04.

Consider GGCAGAGCUCAACACAGCGUGGCAAAGUGGCUCUGUCUCGACUGCC, for which the self-cleavage was 0.03.

As for GGCAGAGCUCAACACAGCGUGGCAAAGUGGCUAUCGCAAGACUGCC, the self-cleavage turned out to be 0.04.

As to GGCAGAGCUCAACACAGCGUGGCAAAGUGGCUUUGGCGAGACAGCC, the self-cleavage turned out to be 0.29.

In the case of GGCAGAGCUCAACACAGCGUGGCAAAGUGGCUGAGGCUAUACUGCU, the self-cleavage came to 0.04.

In the case of GGCAGAGCUCAACACAGCGUGGCAAAGUGGCUUUUGCUAGACUCCC, the self-cleavage came to 0.02.

Turning to GGCAGAGCUCAACACAGCGUGGCAAAGUGGCUGAUUUUUGACUGCC, the self-cleavage came to 0.03.

For GGCAGAGCUCAACACAGCGUGGCAAAGUGGCUGGGGCUAGCCUGGC, the self-cleavage was 0.08.

With GGCAGAGCUCAACACAGCGUGGCAAAGUGGCUAUGACUAGUCUGGC, the self-cleavage was 0.05.

As to GGCAGAGCUCAACACAGCGUGGCAAAGUGGCUUUGACUAUACUGCC, the self-cleavage stood at 0.07.

Regarding GGCAGAGCUCAACACAGCGUGGCAAAGUGGCUAUCACUAGACUGCC, the self-cleavage turned out to be 0.03.

With GGCAGAGCUCAACACAGCGUGGCAAAGUGGCUAUGGCAAGACUGCG, the self-cleavage stood at 0.13.

Take GGCAGAGCUCAACACAGCGUGGCAAAGUGGCUGCGGCUCGACUACC: the self-cleavage came out at 0.2.

For GGCAGAGCUCAACACAGCGUGGCAAAGUGGCUGGGGCUUGAUUGCC, the self-cleavage is 0.

Consider GGCAGAGCUCAACACAGCGUGGCAAAGUGGCUUUGGUUAGACUGAC, for which the self-cleavage turned out to be 0.06.

With GGCAGAGCUCAACACAGCGUGGCAAAGUGGCUUUGGCUCGACUACC, the self-cleavage came out at 0.02.

Regarding GGCAGAGCUCAACACAGCGUGGCAAAGUGGCUAUGGCUAGAGUGAC, the self-cleavage is 0.12.

In the case of GGCAGAGCUCAACACAGCGUGGCAAAGUGGCUCUGCCUAGUCUGCC, the self-cleavage worked out at 0.04.

Consider GGCAGAGCUCAACACAGCGUGGCAAAGUGGCUGUCGAUUGACUGCC, for which the self-cleavage was 0.08.

Take GGCAGAGCUCAACACAGCGUGGCAAAGUGGCGGUGGCUAGACAGCA: the self-cleavage is 0.27.

Take GGCAGAGCUCAACACAGCGUGGCAAAGUGGCUAUGGCUGGACCGCC: the self-cleavage stood at 0.03.

Regarding GGCAGAGCUCAACACAGCGUGGCAAAGUGGCUGUAGCUAUACUGCU, the self-cleavage was found to be 0.03.

For GGCAGAGCUCAACACAGCGUGGCAAAGUGGCUUUUGCUAGACUGUC, the self-cleavage is 0.15.

For GGCAGAGCUCAACACAGCGUGGCAAAGUGGCUUUGGCUAAACUGUC, the self-cleavage was determined as 0.06.

With GGCAGAGCUCAACACAGCGUGGCAAAGUGGCUGGGGAUAGGCUGCC, the self-cleavage amounted to 0.09.

For GGCAGAGCUCAACACAGCGUGGCAAAGUGGCUAUGGCUACAUUGCC, the self-cleavage came to 0.08.

For GGCAGAGCUCAACACAGCGUGGCAAAGUGGCUGUAUCUAGAUUGCC, the self-cleavage was 0.29.

As to GGCAGAGCUCAACACAGCGUGGCAAAGUGGCUGGGGCCAGACUACC, the self-cleavage was 0.01.

As for GGCAGAGCUCAACACAGCGUGGCAAAGUGGCUUCGACUAGACUGCC, the self-cleavage came to 0.16.

Take GGCAGAGCUCAACACAGCGUGGCAAAGUGGCUAUGGCUUGGUUGCC: the self-cleavage was found to be 0.04.

Take GGCAGAGCUCAACACAGCGUGGCAAAGUGGCUGAAGUUAGACUGCC: the self-cleavage came out at 0.03.

On to GGCAGAGCUCAACACAGCGUGGCAAAGUGGCUGAGGCUAGCGUGCC, for which the self-cleavage was found to be 0.08.

As to GGCAGAGCUCAACACAGCGUGGCAAAGUGGCGGUGGCAAGACUGCG, the self-cleavage turned out to be 0.02.

In the case of GGCAGAGCUCAACACAGCGUGGCAAAGUGGCUUUGGCUAGACCGCG, the self-cleavage is 0.06.

Take GGCAGAGCUCAACACAGCGUGGCAAAGUGGCUGAGGCUAGACGGUC: the self-cleavage turned out to be 0.33.

Take GGCAGAGCUCAACACAGCGUGGCAAAGUGGCUUUGGCGAGACUGCG: the self-cleavage was found to be 0.01.

As to GGCAGAGCUCAACACAGCGUGGCAAAGUGGCUUUGGAUAGACGUUC, the self-cleavage amounted to 0.01.

With GGCAGAGCUCAACACAGCGUGGCAAAGUGGCUAUAGCUGGACUGCC, the self-cleavage was 0.14.

As to GGCAGAGCUCAACACAGCGUGGCAAAGUGGCUAUGUCUUGACUGCC, the self-cleavage was found to be 0.

Regarding GGCAGAGCUCAACACAGCGUGGCAAAGUGGCUGUCGCUCGACUGAC, the self-cleavage worked out at 0.05.

For the variant GGCAGAGCUCAACACAGCGUGGCAAAGUGGCUUUGGCAAGACUACC, the self-cleavage was 0.04.

Take GGCAGAGCUCAACACAGCGUGGCAAAGUGGCUAUGGCUAGAUGGCC: the self-cleavage turned out to be 0.06.

Take GGCAGAGCUCAACACAGCGUGGCAAAGUGGCUAUGGGUGGACUGCC: the self-cleavage was 0.03.

With GGCAGAGCUCAACACAGCGUGGCAAAGUGGCUCGGGCUAGAGUGAC, the self-cleavage came to 0.11.

The record behind these values is the RNAGym collection of RNA variant scans (doi:10.7554/elife.90254).
